Hit rate of the full screen: of about 310,000 compounds, about 14,000 (4.5%) showed an effect of 50% or more. The effect is printed as a negative number. The list shows a part of the results.
Biological target: human ether-à-go-go-related gene (hERG) potassium channel (human, UniProt Q12809)
Assay: primary screen, population patch clamp on CHO cells stably expressing hERG
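Note: peak tail current of the secondary pulse compared with the same well before compound.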

Sequence of human ether-à-go-go-related gene (hERG) potassium channel (Q12809 whole entry, looked up): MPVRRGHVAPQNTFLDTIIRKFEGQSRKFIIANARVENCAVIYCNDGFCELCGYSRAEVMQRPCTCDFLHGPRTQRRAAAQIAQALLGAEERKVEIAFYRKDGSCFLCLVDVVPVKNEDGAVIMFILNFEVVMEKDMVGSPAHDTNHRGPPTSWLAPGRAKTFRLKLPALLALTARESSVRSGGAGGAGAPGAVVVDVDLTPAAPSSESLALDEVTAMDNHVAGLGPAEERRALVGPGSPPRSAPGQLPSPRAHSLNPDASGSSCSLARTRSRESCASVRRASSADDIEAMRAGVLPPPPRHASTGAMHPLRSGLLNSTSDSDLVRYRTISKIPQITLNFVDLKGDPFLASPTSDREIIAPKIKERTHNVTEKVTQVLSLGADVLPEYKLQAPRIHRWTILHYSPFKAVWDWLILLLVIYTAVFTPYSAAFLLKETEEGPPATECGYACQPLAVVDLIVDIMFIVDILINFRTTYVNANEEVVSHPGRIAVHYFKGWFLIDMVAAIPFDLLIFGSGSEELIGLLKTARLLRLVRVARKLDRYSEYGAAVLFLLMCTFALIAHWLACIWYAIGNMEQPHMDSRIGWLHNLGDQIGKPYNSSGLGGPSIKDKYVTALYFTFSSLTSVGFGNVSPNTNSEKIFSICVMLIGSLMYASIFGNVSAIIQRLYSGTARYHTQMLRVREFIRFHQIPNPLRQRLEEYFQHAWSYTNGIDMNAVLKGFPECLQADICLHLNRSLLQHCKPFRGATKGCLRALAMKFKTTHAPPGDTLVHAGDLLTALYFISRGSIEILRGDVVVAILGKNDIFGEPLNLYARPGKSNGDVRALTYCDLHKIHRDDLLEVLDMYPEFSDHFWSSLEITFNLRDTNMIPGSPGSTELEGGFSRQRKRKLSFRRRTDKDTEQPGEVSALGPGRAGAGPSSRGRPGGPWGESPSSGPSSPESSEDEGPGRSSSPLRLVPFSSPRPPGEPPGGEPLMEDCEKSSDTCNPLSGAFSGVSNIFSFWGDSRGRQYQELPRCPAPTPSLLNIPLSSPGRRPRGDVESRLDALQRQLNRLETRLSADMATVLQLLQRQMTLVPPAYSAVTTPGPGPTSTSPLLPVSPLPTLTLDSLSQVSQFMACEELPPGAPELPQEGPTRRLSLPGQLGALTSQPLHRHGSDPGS

Row | SMILES | hERG current change (%, negative = inhibition) at 10uM [%]
1 | CCOCCn1c(SCc2cccc(C)c2)nc2c1c(=O)[nH]c(=O)n2C | -45.1
2 | CCOC(=O)c1ccc(NC(=S)NCc2ccc(S(N)(=O)=O)cc2)cc1 | 16.5
3 | O=Cc1ccc(Cl)c(Cl)c1 | 10.9
4 | CSc1ccccc1OCc1cc(C(=O)N(C)Cc2cnccn2)no1 | 1.87
5 | Cc1ccccc1NC(=S)N(C)C1(c2ccccc2Cl)CCCCC1=O (centres unmarked) | -4.89
6 | Cc1ccc(Cn2cccc2/C=C2/C(=N)N3C=CSC3=NC2=O)cc1 | -2.8
7 | CCC(=O)/C=C1\Sc2ccc(OC)cc2N1CC | -2.14
8 | CCc1cccc2c(C(=O)CN3C(=O)C(=O)N(C4CCCC4)C3=O)c[nH]c12 | 5.55
9 | CC(C)CN(CC(C)C)S(=O)(=O)N1CCC(C(=O)NCc2ccc3c(c2)OCO3)CC1 | 0.114
10 | CCOC(=O)c1sc(=S)n(-c2ccccc2Cl)c1SC | -33
11 | CC(C)(Oc1ccc(Cl)cc1)C(=O)NCC1CCCO1 (centres unmarked) | 0.56
12 | CSc1ccc(/C=C(/Sc2nnc(-c3ccccc3)o2)C(=O)O)cc1 | 24.2
13 | O=C(CSc1ncccc1-c1nc2ccccc2[nH]1)N1CCCCC1 | -16.3
14 | Cc1ccc(CNC(=O)CNS(=O)(=O)c2cccc3nsnc23)cc1 | -7.87
15 | COc1cc(/C=C2\SC(=Nc3ccc(F)cc3)N(c3ccc(F)cc3)C2=O)ccc1OCC(=O)O | 10.4
16 | O=C(Nc1nnc(Cc2ccc(Cl)cc2)s1)c1cccnc1 | 13.9
17 | O=C(NC(=S)Nc1cc(C(F)(F)F)ccc1Cl)c1ccccc1 | 10.5
18 | Cc1ccc2cc(CCNS(=O)(=O)c3ccc(F)cc3)c(=O)[nH]c2c1C | 10.9
19 | COc1ccccc1C(C)NCC(=O)NC(=O)NCc1ccco1 (centres unmarked) | -3.16
20 | O=C(/C=C/c1cccs1)NC1CC1 | 44.1
21 | CC1(C)C[C@@H]2C[C@@](C)(CN2C(=O)c2ccccc2)C1 | 11.3
22 | Cc1ccc(C)c(NC(=O)c2cc3c([nH]c4ccccc43)c(C)n2)c1 | 5.7

Row | SMILES | hERG current change (%, negative = inhibition) at 10uM [%]
23 | CCOC(=O)c1cc(S(=O)(=O)N2CCN(Cc3ccccc3)CC2)cn1C | -17.7
24 | COc1ccc(O)c(C(=O)c2cnn(-c3ccccn3)c2)c1 | -6.63
25 | O=C(Cc1n[nH]c(=O)c2ccccc12)NC(c1ccccc1)c1ccccc1 | 6.6
26 | CCOC(=O)c1c(NC(=O)CNCC(O)CO)sc(C)c1C (centres unmarked) | -7.91
27 | COCCNCCCOc1ccc(Cl)cc1Br.O=C(O)C(=O)O | -42
28 | CCCCNC(=O)CC1N=C2c3ccccc3N=C(SCC(=O)Nc3cccc(C)c3)N2C1=O (centres unmarked) | -52.6
29 | Cc1cc(Cl)ccc1NC(=O)CN1C(=O)C(=O)N(C2CCCC2)C1=O | -5
30 | Cc1cccc(OCC(=O)OCC(=O)NCC2CCCO2)c1C (centres unmarked) | 9.72
31 | CC(C)(C)OC(=O)N[C@@H](COCc1ccccc1)C(=O)N[C@@H](CO)[C@H](O)[C@@H]1C[C@@H]1C(=O)NC1CC1 | 16
32 | O=C(/C=C/c1ccc(F)cc1)c1ccccc1Br | -17.4
33 | O=C(CSc1c[nH]c2ccccc12)NCC1CCCO1 (centres unmarked) | 11.7
34 | CC(=O)N/C(=C\c1ccc(F)cc1)C(=O)OC(C)C | 0.32
35 | C=CCc1cc(C)ccc1OCCCC(C(=O)OCC)C(=O)OCC | -0.439
36 | COc1cccc2c1C(=O)O/C2=C/c1ccc2c(c1)OCO2 | 9.22
37 | C=CCOC(=O)C1=C[C@@H](c2coc3ccccc3c2=O)C[C@@H](OCc2ccc(CO)cc2)O1 | -40.9
38 | COC(C[C@@H](O)C[C@H](O)[C@H](C)OCc1ccccc1)OC | 13.7
39 | COC(=O)c1ccc(CO/N=C/c2ccc(OC)cc2)o1 | -13.4
40 | Cc1nc2c(cc1NC(=O)c1ccccc1)nc(C)n2Cc1ccccc1 | 4.1
41 | COc1cccc(NC(=S)/C(=C(\[O-])c2cc(C)n(-c3ccccc3F)c2C)[n+]2ccc(N(C)C)cc2)c1 | 12.4
42 | O=C(O)CCCC(=O)Nc1cccc(C(F)(F)F)c1 | 0.293
43 | Cc1cc2oc(C(=O)Nc3nonc3C)c(C)c2cc1Cl | 24.6
44 | Cc1ccc2c(c1)N(CC(=O)NCc1cccs1)C(=O)C(C)O2 (centres unmarked) | 14.1
